By IC50 is meant the dose at which the fit gives 50% viability; fits outside the tested doses are given as limits. AUC, from the same fit, is the share of area under the viability curve across the 256-fold dose range; the more sensitive the line, the further below 1. For part of these data: Where the top dose is marked as inferred, it was calculated from the reported fits. For part of these data: Drugs with an entry number were screened twice under separate entries, and the two screens often disagree.
Columns and labels:
Experiment in all cases: Viability of human cancer cell lines after 72 h of drug (GDSC screen)
[1] = compound: Cc1ccc(C(=O)N(CCCN)[C@@H](c2nc3cc(Cl)ccc3c(=O)n2Cc2ccccc2)C(C)C)cc1 [SB-715992]; settings: top dose 0.128 µM; top dose inferred
Procedure: (§1)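 Human cancer cell lines in 384-well plates, medium with 10% serum, drug for 72 h over a 256-fold dose range (nine 2-fold or five 4-fold steps up to the top dose). Adherent lines were fixed and stained with the nucleic acid dye Syto60, suspension lines read with resazurin; signal relative to control wells, capped at 0 and 100%. One two-parameter sigmoid per drug and line, fitted in a mixed model over all curves with the slope shared within a line.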

[2] = compound: CC1(C)CNc2cc(NC(=O)c3cccnc3NCc3ccncc3)ccc21 [AMG-706]; settings: top dose 2 µM; top dose inferred
Procedure: as §1

[3] = compound: CC(=O)O[C@@]12CO[C@@H]1C[C@H](O)[C@@]1(C)C(=O)[C@H](O)C3=C(C)[C@@H](OC(=O)[C@H](O)[C@@H](NC(=O)OC(C)(C)C)c4ccccc4)C[C@@](O)([C@@H](OC(=O)c4ccccc4)[C@H]21)C3(C)C [Docetaxel]; settings: top dose 0.0125 µM
Procedure: as §1

[4] = compound: COC(=O)[C@H](CCSC)NC(=O)c1ccc(NC[C@@H](N)CS)cc1-c1ccccc1 [FTI-277]; settings: top dose 1.024 µM; top dose inferred
Procedure: as §1

[5] = compound: CCOc1nc(NC(=O)Cc2cc(OC)ccc2OC)cc(N)c1C#N [JNK Inhibitor VIII]; settings: top dose 10 µM; top dose inferred
Procedure: as §1

[6] = compound: C[C@]1(O)C[C@@H](c2nc(-c3ccc4ccc(-c5ccccc5)nc4c3)c3c(N)nccn32)C1 [OSI-906]; settings: top dose 2.56 µM; top dose inferred
Procedure: as §1

[7] = compound: CN1CCN(c2ccc([N+](=O)[O-])c3no[n+]([O-])c23)CC1 [NSC-207895]; settings: top dose 20 µM; top dose inferred
Procedure: as §1

[8] = compound: Cc1sc2c(c1C)C(c1ccc(Cl)cc1)=N[C@@H](CC(=O)OC(C)(C)C)c1nnc(C)n1-2 [JQ1]
Procedure: as §1

[9] = compound: O=C(/C=C/c1cccc(S(=O)(=O)Nc2ccccc2)c1)NO [Belinostat]; settings: top dose 20 µM; top dose inferred
Procedure: as §1

[10] = compound: c1ccc2c(CCNc3ccc(Nc4ccncc4)cc3)c[nH]c2c1 [JNJ-26854165]; settings: top dose 10 µM
Procedure: as §1

[11] = compound: COCC[n+]1c2c(n(Cc3cnccn3)c1C)C(=O)c1ccccc1C2=O [YM155]; settings: top dose 5.12 µM
Procedure: as §1

[12] = top dose 1 µM, screen: GDSC drug entry 1218, top dose inferred
[13] = top dose 2.56 µM, screen: GDSC drug entry 163

Cell Line | AUC [1] | IC50 [1] | AUC [2] | IC50 [2] | AUC [3] | IC50 [3] | AUC [4] | IC50 [4] | AUC [5] | IC50 [5] | AUC [6] | IC50 [6] | AUC [7] | IC50 [7] | AUC [8, 12] | IC50 [8, 12] | AUC [8, 13] | IC50 [8, 13] | AUC [9] | IC50 [9] | AUC [10] | IC50 [10] | AUC [11] | IC50 [11]
H2461 (mesothelioma, adherent) | 0.982 | > 128 nM | 0.981 | > 2000 nM | 0.893 | > 12.5 nM | 0.979 | > 1020 nM | 0.981 | > 10 µM | 0.943 | > 2560 nM | 0.969 | > 20 µM | 0.978 | > 1000 nM | 0.808 | 1740 nM | 0.64 | 3370 nM | 0.954 | > 10 µM | 0.464 | 248 nM
SK-MEL-30 (melanoma, adherent) | 0.906 | > 128 nM | 0.932 | > 2000 nM | 0.899 | > 12.5 nM | 0.929 | > 1020 nM | 0.985 | > 10 µM | 0.898 | > 2560 nM | 0.806 | 10.9 µM | 0.984 | > 1000 nM | 0.541 | 208 nM | 0.444 | 870 nM | 0.845 | 7.84 µM | 0.056 | < 20 nM
H2731 (mesothelioma, adherent) | 0.972 | > 128 nM | 0.917 | > 2000 nM | 0.801 | 7.13 nM | 0.971 | > 1020 nM | 0.94 | > 10 µM | 0.873 | > 2560 nM | 0.85 | 18.7 µM | 0.981 | > 1000 nM | 0.68 | 553 nM | 0.088 | < 78.1 nM | 0.868 | > 10 µM | 0.382 | 144 nM
MFE-280 (endometrium, adherent) | 0.917 | > 128 nM | 0.976 | > 2000 nM | 0.961 | > 12.5 nM | 0.979 | > 1020 nM | 0.977 | > 10 µM | 0.981 | > 2560 nM | 0.942 | > 20 µM | 0.934 | > 1000 nM | 0.867 | > 2560 nM | 0.431 | 772 nM | 0.977 | > 10 µM | 0.041 | < 20 nM
NCI-H2444 (non-small cell lung carcinoma, adherent) | 0.988 | > 128 nM | 0.977 | > 2000 nM | 0.911 | > 12.5 nM | 0.988 | > 1020 nM | 0.982 | > 10 µM | 0.987 | > 2560 nM | 0.988 | > 20 µM | 0.939 | > 1000 nM | 0.862 | > 2560 nM | 0.461 | 966 nM | 0.897 | > 10 µM | 0.302 | 81.5 nM
EFO-27 (ovary, adherent) | 0.903 | > 128 nM | 0.977 | > 2000 nM | 0.573 | 1.3 nM | 0.972 | > 1020 nM | 0.98 | > 10 µM | 0.981 | > 2560 nM | 0.922 | > 20 µM | 0.973 | > 1000 nM | 0.63 | 401 nM | 0.403 | 634 nM | 0.897 | > 10 µM | 0.06 | < 20 nM
